Measured values: PubChem BioAssay (Tox21)
Values joined by “and” are separate entries in the source; they are usually repeats but may differ in a detail not shown here. Identical values can stand only once. Inconclusive results, whose numbers are uncertain, are shown with a selection of clear calls. Where the call is inconclusive, the potency comes from a doubtful curve fit. Active and inactive are the calls of the source. Calls come from the whole dose curve; as a rule, active = well fitted cell-killing curve with a large enough effect in the repeat runs; inconclusive = weak or mixed curves, or effect the other way; inactive = no such curve, though single readings can be large or run the other way.

experiment: qHTS assay to identify small molecule antagonists of the thyroid receptor (TR) signaling pathway - cell viability counter screen (AID 743064); details: GH3.TRE-Luc viability, CellTiter-Fluor, 24 h; activity change, negative = cytotoxic: at 70.3 µM (top of the series) unless noted; note: nearly all actives have a fitted effect of over 50% in size
How it was run: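 Counter screen for cytotoxicity: compound plus T3 (1 nM final) on GH3.TRE-Luc cells, 23.5 h at 37 °C, then fluorescence viability readout with CellTiter-Fluor.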
% is set by controls: 0 for no effect and ±100 for the full control effect; potency is the fitted concentration of half-maximal effect; tags give direction and shape of the fitted curve.

| SMILES | Potency | activity change, negative = cytotoxic |
| --- | --- | --- |
| CNCCCC12CCC(c3ccccc31)c1ccccc12 | active: 11.9 µM and active: 4.86 µM |  |
| Cc1ccc([N+](=O)[O-])c(N)c1 |  | inactive: -3.21% |
| CC(C)(C)NC(=O)[C@@H]1CN(Cc2cccnc2)CCN1C[C@@H](O)C[C@@H](Cc1ccccc1)C(=O)N[C@H]1c2ccccc2C[C@H]1O | inconclusive: 18.8 µM [cytotoxic, partial curve, poor fit] |  |
| C#C[C@]1(O)CC[C@H]2[C@@H]3[C@H](C)CC4=C(CCC(=O)C4)[C@H]3CC[C@@]21C | inconclusive: 33.5 µM [cytotoxic, single point] |  |
| CCC(C)c1cc([N+](=O)[O-])cc([N+](=O)[O-])c1OC(=O)OC(C)C (stereo unspecified) | active: 48.6 µM |  |
| O=C1NC(=O)c2ccccc21 | inconclusive: 62.6 µM [rising, single point] |  |
| Nc1ccc(N)c(Cl)c1 | inconclusive: 27.3 µM [cytotoxic, partial curve, poor fit] |  |
| NC(=O)C(=O)N/N=C/c1ccc([N+](=O)[O-])o1 | active: 26.6 µM |  |
| O=C(O)Cn1c(=O)n(Cc2ccc(Br)cc2F)c(=O)c2ccc(Cl)cc21 | inconclusive: 61.1 µM [cytotoxic, single point] |  |
| CN1C[C@H](C(=O)N[C@]2(C)O[C@@]3(O)[C@@H]4CCCN4C(=O)[C@H](Cc4ccccc4)N3C2=O)C[C@@H]2c3cccc4[nH]cc(c34)C[C@H]21 | active: 21.1 µM |  |
| CNc1ccc(O)cc1 | inconclusive: 24.3 µM [cytotoxic, partial curve, poor fit] |  |
| CCCOc1ccc2nc(NC(=O)OC)[nH]c2c1 | inconclusive: 2.98 µM [cytotoxic, full curve, poor fit] |  |
| C[C@]12C=CC(=O)C=C1CC[C@@H]1[C@@H]2C(=O)C[C@@]2(C)[C@H]1CC[C@]2(O)C(=O)CO | inconclusive: 34.4 µM [rising, partial curve] |  |
| O=C(O)Cc1ccccc1Oc1ccc(Cl)cc1Cl | inconclusive: 13.3 µM [rising, partial curve, poor fit] |  |
| CCc1cc(C(C)(C)C)c(O)c(C(C)(C)C)c1 | inconclusive: 69.3 µM [cytotoxic, single point] and inconclusive: 68.6 µM [cytotoxic, single point] |  |
| CCCCCOC(=O)CCCC | inconclusive: 68.6 µM [rising, partial curve, poor fit] |  |
| COC(=O)c1cccc(C(=O)OC)c1 | inconclusive: 67.1 µM [rising, single point] |  |
| CCOC(=O)c1ccccc1C(=C1C=C(Br)C(=O)C(Br)=C1)c1cc(Br)c(O)c(Br)c1 | active: 45.7 µM |  |
| CC(C)=CCC/C(C)=C\CO | inconclusive: 69.1 µM [rising, single point] |  |
| C=CC(=O)OCCn1c(=O)n(CCOC(=O)C=C)c(=O)n(CCOC(=O)C=C)c1=O | active: 5.45 µM |  |
| Nc1c(N=Nc2ccc(-c3ccc(N=Nc4cc(S(=O)(=O)O)c5ccccc5c4N)cc3)cc2)cc(S(=O)(=O)O)c2ccccc12 | active: 16.8 µM and active: 27.3 µM |  |
| CCCCNc1c(C(=O)OCC)c(C)nc2c1cnn2CC | inconclusive: 33.5 µM [cytotoxic, single point] |  |
| CC(C)COC(=O)c1ccc(N)cc1 | inconclusive: 8.41 µM [rising, full curve, poor fit] |  |
| C=C(CC)C(=O)c1ccc(OCC(=O)O)c(Cl)c1Cl | inconclusive: 21.1 µM [cytotoxic, partial curve, poor fit] |  |
| O=C1c2ccccc2C(=O)N1CCc1noc(-c2ccc(CN3CCCCCC3)s2)n1 | inconclusive: 49.9 µM [cytotoxic, partial curve, poor fit] |  |
| C=C1CC[C@H](O)C/C1=C\C=C1/CCC[C@]2(C)[C@@H]([C@H](C)CCCC(C)C)CC[C@@H]12 | active: 26.6 µM and active: 48.1 µM |  |
